# Experimental data taken from PubChem BioAssay AID463173 (ICCB-Longwood Screening Facility, Harvard Medical School, 2010).
# The campaign covered roughly 52,000 compounds. About 1,700 (3.3%) were called active. Rule as the data show it: active = survival mostly below about 52% (no sharp cut-off); inactive = mostly above about 56%. This is one part of the list.
# System: Wild type
# Test: growth inhibition of S. aureus wild type versus tarO mutant, primary screen, teichoic acid synthesis inhibitors, RN4220, OD600 (AID 463173)
# Conditions: S. aureus RN4220 wild type/DeltatarO growth, OD600, 18 h, hits give low values, screened at 18.75 µg/mL (by protocol)
row,Structure (SMILES),survival
1,O=C1CCC(=O)N1c1ccccc1,inactive: 103%
2,Cc1cc2cc(C#N)c(N3CCOCC3)nc2cc1Cl,inactive: 105%
3,COc1ccc(CCNC(=O)CCCn2c(=O)c3ccccc3n(Cc3ccc(C)cc3)c2=O)cc1OC,inactive: 92%
4,Cc1ccc2ncc(C(=O)NCCc3ccc(S(N)(=O)=O)cc3)c(=O)n2c1,inactive: 93%
5,Cc1nn2c(C)c(C(=O)N3CCN(c4ccccc4)CC3)cnc2c1-c1ccccc1,inactive: 73%
6,Cc1ccc(CCNC(=O)c2cc3c(=O)oc4ccccc4c3s2)cc1,inactive: 73%
7,O=C(c1csc(Nc2ccccc2Cl)n1)N1CCCC1,inactive: 112%
8,COc1ccccc1OCCn1c(COc2cc(C)ccc2C)nc2ccccc21,inactive: 87%
9,CCOc1ccccc1Nc1sc(C(=O)c2ccccc2)c(N)c1C(=O)NCCc1ccccc1,inactive: 124%
10,O=C(c1ccc(Cl)cc1)N(Cc1ccco1)Cc1ccco1,inactive: 102%
11,COc1cccc(CNC(=O)CNS(=O)(=O)c2ccc3nc(C)sc3c2)c1,inactive: 79%
12,CC(C)/C=N/NC(=O)c1ccccc1,inactive: 109%
13,COc1cc(NC(=O)CSc2nc3ccccc3nc2Cc2ccccc2OC)cc(OC)c1,inactive: 66%
14,C/C(=N\Nc1nc2sc3c(c2c2ncnn12)CC(C)(C)OC3)C(=O)O,inactive: 102%
15,COc1ccc(NC(=O)Cn2c(=O)n(CC3CCCO3)c(=O)c3ccccc32)c(OC)c1 (stereo not drawn),inactive: 86%
16,COc1cc(OC)cc(C(=O)Nc2ccc3oc(-c4ccccc4C)nc3c2)c1,inactive: 55%
17,CCC(=O)Nc1ccc(C)cc1-c1nc2ccccc2n(CC(=O)Nc2ccccc2Cl)c1=O,inactive: 107%
18,CC(C)CNc1nc(NC(C)(C)C)nc(Oc2ccc(=O)n(-c3ccccc3)n2)n1,inactive: 84%
19,Cc1ccccc1NC(=O)c1c(C)oc2ccc(O)c(CN3CCCC3)c12,inactive: 89%
20,CCN(CC)S(=O)(=O)c1nnc(NC(=O)c2ccccc2Cl)s1,inactive: 69%

row,Structure (SMILES),survival
1,COc1cccc(-c2cc(C(=O)Nc3cc(C)nn3-c3ccccc3)no2)c1,inactive: 89%
2,Cc1ccc(C)c2sc(NC(=O)c3ccc(S(=O)(=O)N4CCCC4)cc3)nc12,inactive: 19%
3,O=C(c1cc2ccc3cccnc3c2[nH]1)N1CCN(c2cccc(C(F)(F)F)c2)CC1,active: -2%
4,Cc1ccc(NC(=O)c2oc3ccc(S(=O)(=O)N4CCCCC4)cc3c2C)cc1C,inactive: 77%
5,COc1ccc2c(c1)c1c(c(=O)n(CCc3ccccc3)c(=O)n1Cc1ccccc1)n2C,inactive: 57%
6,COc1ccc(-c2cc(C(F)(F)F)nc(SCC(=O)N(C)Cc3ccccc3)n2)cc1OC,inactive: 45%
7,CCOc1ccc(CNC(=O)c2ccc3c(c2)nc2n3CCOC2)cc1,inactive: 57%
8,CC(=O)N1CCOc2cc(S(=O)(=O)NCc3ccc(C)cc3)c(C)cc21,inactive: 81%
9,CCN1CCN(CCCNC(=O)c2cc3c(=O)n(CC)c4ccccc4c3s2)CC1,inactive: 85%
10,Cc1c(CNCc2ccc(OC(C)C)cc2)c(C(=O)O)c(C)n1Cc1ccc(Cl)cc1,inactive: 122%
11,COc1ccc(N(C(=O)c2ccccc2F)S(=O)(=O)c2ccc3c(c2)n(C)c(=O)n3C)cc1,inactive: 83%
12,COc1ccc(CCNC(N)=S)cc1OC,inactive: 90%
13,Cc1ccc(C)c(CN2C(=O)c3ccccc3S(=O)c3ccc(C(=O)N4CCC(C)CC4)cc32)c1 (stereo not drawn),inactive: 92%
14,CCOC(=O)c1cccc(NC(=O)c2cc(S(=O)(=O)N3CCCCCC3)cn2C)c1,inactive: 71%
15,COc1ccc(CNc2oc(-c3ccc(COc4ccc(Cl)cc4)o3)nc2C#N)cc1,inactive: 127%
16,CCC(C)(C)NS(=O)(=O)c1cc(-c2cc(C)no2)ccc1C,inactive: 82%
17,CCN1c2ccccc2-c2nc(SCC(=O)Nc3cccc(C(F)(F)F)c3)ncc2S1(=O)=O,inactive: 79%
18,COc1cc(O)ccc1C1CC(=O)Nc2c1c(=O)nc(SCc1ccccc1C)n2C (stereo not drawn),inactive: 108%
19,COc1ccc(CNC(=O)c2c(Nc3ccc(OC)cc3OC)sc(C(=O)c3ccc(Cl)cc3)c2N)cc1,inactive: 66%
20,CCOC(=O)CSc1nc2sc3c(c2c(=O)n1Cc1ccccc1)CCC(C(C)(C)C)C3 (stereo not drawn),inactive: 90%

row,Structure (SMILES),survival
1,S=c1nc[nH]c2c1[nH]c1ccccc12,inactive: 98%
2,CC(C)OCCCNC(=O)CCCn1c(=O)[nH]c2ccsc2c1=O,inactive: 70%
3,Cc1ccc(CNC(=O)C2CCC(CNS(=O)(=O)c3ccc4c(c3)CCCC(=O)N4)CC2)cc1 (stereo not drawn),inactive: 71%
4,CC1CCCCN1C(=S)Nc1ccccc1 (stereo not drawn),inactive: 96%
5,COc1ccc(CN(C(=O)c2cc3ccccc3oc2=O)C2CCS(=O)(=O)C2)cc1 (stereo not drawn),inactive: 72%
6,O=C(O)CSC1=NCCCN1,inactive: 89%
7,CCOc1ccc(CNC(=O)c2cc(=O)[nH]c3ccc(S(=O)(=O)N4CCCCC4)cc23)cc1,inactive: 82%
8,Cc1cc(C)cc(Nc2cc(C(=O)NCCCN(Cc3ccccc3)C(C)C)c3ccccc3n2)c1,active: -6%
9,C=CCn1cnc2scc(-c3ccccc3)c2c1=O,inactive: 90%
10,COc1ccc(-c2nc3c4cnn(-c5ccccc5F)c4ncn3n2)cc1,inactive: 85%
11,CC(=O)Nc1ccc(NS(=O)(=O)c2ccc3c(c2)CC(C)N3C(=O)C2CCC2)cc1 (stereo not drawn),inactive: 80%
12,COC(=O)CC1Oc2ccc(F)cc2-n2cc(-c3ccc(Cl)cc3)nc21 (stereo not drawn),inactive: 96%
13,COc1ccc(-c2cnc(N)n2CC2CCCO2)cc1 (stereo not drawn),inactive: 102%
14,Cc1cccc(C)c1OCCSc1nc2ccccc2n1CC(=O)O,inactive: 67%
15,COc1ccc(N2CCN(S(=O)(=O)c3csc(C(N)=O)c3)CC2)cc1,inactive: 102%
16,CCN(Cc1ccccc1)C(=O)Cn1c(=O)n(-c2ccc(F)c(Cl)c2)c(=O)c2sc3ccccc3c21,inactive: 89%
17,Cc1ccc2cc(CN(CC3CCCO3)C(=O)C(F)(F)F)c3nnnn3c2c1C (stereo not drawn),inactive: 115%
18,O=C(Nc1cccc(-c2nc3ccccc3o2)c1)c1cc([N+](=O)[O-])ccc1N1CCOCC1,inactive: 60%
